Results on 89 compounds are retold here after PMC4336329 (PLoS ONE, 2015).

The whole screen tested about 310,000 compounds, of which about 2,200 (0.71%) showed an effect of 50% or more. The effect is printed as a negative number. Some of the results follow.

The target in this assay is human ether-à-go-go-related gene (hERG) potassium channel (human, UniProt Q12809). Briefly: primary screen, population patch clamp on CHO cells stably expressing hERG.
human ether-à-go-go-related gene (hERG) potassium channel, sequence (Q12809 whole entry, looked up): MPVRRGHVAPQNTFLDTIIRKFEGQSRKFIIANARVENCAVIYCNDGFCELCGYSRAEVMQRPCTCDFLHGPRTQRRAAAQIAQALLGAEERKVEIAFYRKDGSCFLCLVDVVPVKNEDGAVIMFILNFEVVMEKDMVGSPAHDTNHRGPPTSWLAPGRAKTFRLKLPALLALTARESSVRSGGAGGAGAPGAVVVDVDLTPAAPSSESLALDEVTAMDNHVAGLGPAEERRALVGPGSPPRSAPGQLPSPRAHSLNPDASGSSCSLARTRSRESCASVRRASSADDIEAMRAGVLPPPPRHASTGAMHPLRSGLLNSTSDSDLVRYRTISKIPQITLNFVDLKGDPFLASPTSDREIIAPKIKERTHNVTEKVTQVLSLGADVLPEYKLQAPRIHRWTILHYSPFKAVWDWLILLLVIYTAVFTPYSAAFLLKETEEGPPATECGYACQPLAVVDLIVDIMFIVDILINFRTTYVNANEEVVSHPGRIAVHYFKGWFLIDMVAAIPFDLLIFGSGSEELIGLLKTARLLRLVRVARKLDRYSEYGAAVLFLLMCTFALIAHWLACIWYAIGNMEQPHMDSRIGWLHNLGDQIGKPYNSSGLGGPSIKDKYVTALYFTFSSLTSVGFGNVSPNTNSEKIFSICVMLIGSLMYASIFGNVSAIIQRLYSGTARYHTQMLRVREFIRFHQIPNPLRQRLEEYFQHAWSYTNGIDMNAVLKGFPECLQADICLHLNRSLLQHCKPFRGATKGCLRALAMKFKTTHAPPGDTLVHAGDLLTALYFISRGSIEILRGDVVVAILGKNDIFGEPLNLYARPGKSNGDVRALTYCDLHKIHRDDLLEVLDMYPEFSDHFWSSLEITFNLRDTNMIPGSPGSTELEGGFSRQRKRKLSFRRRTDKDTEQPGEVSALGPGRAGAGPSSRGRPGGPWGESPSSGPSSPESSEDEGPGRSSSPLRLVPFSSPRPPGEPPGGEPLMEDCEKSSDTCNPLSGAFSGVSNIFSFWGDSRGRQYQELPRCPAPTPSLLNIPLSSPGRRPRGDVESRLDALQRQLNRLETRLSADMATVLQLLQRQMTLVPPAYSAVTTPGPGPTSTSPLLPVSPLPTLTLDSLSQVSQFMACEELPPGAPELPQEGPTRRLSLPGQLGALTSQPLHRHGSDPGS
As to `O=C(CSc1nnc2ccccn12)Nc1cccc(S(=O)(=O)N2CCOCC2)c1`, the “hERG current change (%, negative = inhibition) at 1uM” value came out at 2.93%.
`CCCOc1ccc(S(=O)(=O)Nc2ccccn2)c2ccccc12`: the “hERG current change (%, negative = inhibition) at 1uM” value was 14.6%.
To `COC(=O)/C(=C/c1ccco1)NC(=O)c1ccco1` belongs 9.62%; to `O=C(Nc1ncc(Br)s1)C1CCCN1S(=O)(=O)c1cccc2cccnc12` (centres unmarked), -1.15%; to `CC1CN(c2ccc([N+](=O)[O-])c(N3CCCCC3)c2)CCN1` (centres unmarked), 8.07%.
For the compound `COc1ccc(OC)c2nc3c(cc12)CCC3`, the “hERG current change (%, negative = inhibition) at 1uM” value was determined as 17.8%.
To `CCc1ccc(N(CC(=O)NC2CCCCC2)S(=O)(=O)c2c(C)noc2C)cc1` belongs 15.4%.
To `COc1ccccc1OCCCC(=O)NCc1ccco1` belongs 14.3%; to `CC(C)c1nnc(NC(=O)CCC(=O)N2CCN(c3cccc(Cl)c3)CC2)s1`, -0.97%.
To `CC12CN(NC(=O)c3ccc(Cl)cc3)C3(C#N)CC1CCC23C` (centres unmarked) belongs 16.9%; to `Cc1ccnc(NC(=O)c2ccc(Cl)c(NC(=O)c3ccccc3C)c2)c1`, 10.8%.
As for `c1ccc2c(c1)[nH]c1c(N3CCN(C4CCCCC4)CC3)ncnc12`, the “hERG current change (%, negative = inhibition) at 1uM” value is reported as -0.461%.
To `COC(=O)c1ccccc1NC(=O)CCCn1nc(C)c2c(C)n(-c3ccccc3)nc2c1=O` belongs 9.75%; to `Cc1ccc2oc(-c3ccccc3)c(C(=O)O)c(=O)c2c1`, 9.14%.
To `CCN1CCN(C(=O)/C=C/c2ccc(C)o2)CC1` belongs 10.5%; to `Cc1ccc(NC(=O)CSC(N)=O)cc1Cl`, 7.65%; to `Cc1c(C(=O)N2CCOCC2)sc(NC(=O)c2ccc([N+](=O)[O-])cc2)c1C#N`, 15.8%.
To `COc1ccc(C)cc1NS(=O)(=O)c1ccc(Br)s1` belongs 1.38%.
`Cc1ccc(N2C(=O)C(CC(=O)Nc3cccc(F)c3)N(CCc3ccncc3)C2=O)cc1` (centres unmarked): the “hERG current change (%, negative = inhibition) at 1uM” value was -7.51%.
Then `COc1ccc(CNC(=O)CCCOc2cc(=O)n(C)c3ccccc23)cc1`, with 11.2%; and `CC1CC2(CCCCC2)N2C(=O)C(=O)c3cccc1c32` (centres unmarked), with 3.32%; and `Cc1cc(Cn2nc(C(=O)NCc3cccc(C(F)(F)F)c3)cc2-c2ccccc2)on1`, with -2.81%.
`CC(=O)c1ccc(NC(=S)N2CCC(O)CC2)cc1`: the “hERG current change (%, negative = inhibition) at 1uM” value stood at 26.4%.
Then `O=S(=O)(NC(=NC1CCCCC1)c1ccccc1F)c1ccccc1`, with 11.5%; and `C[C@@H]1CC[C@H](O)/C=C/C(=O)O[C@H](C)CC[C@H](O)/C=C/C(=O)O1`, with 13.1%; and `Cc1ccc2cccc(NC3OC(=O)c4ccccc43)c2n1` (centres unmarked), with 22.2%.
Then `CCCCCCC(=O)N/N=C1\CCCc2ccccc21`, with 4.95%; and `Cc1cc(C)n2nc(C(=O)OCC(=O)c3ccccc3Cl)nc2n1`, with 5.63%.
`COc1ccc(NC2CCCN(C(=O)c3cc(C)nc4cc(F)ccc34)C2)cc1` (centres unmarked): the “hERG current change (%, negative = inhibition) at 1uM” value stood at 22.8%.
Then `CC(C)COc1cccc(C(=O)NC(=S)NCc2cccnc2)c1`, with 4.19%; and `Fc1ccc(N2N=C(c3cccs3)CC2c2ccccc2)cc1` (centres unmarked), with 14.1%; and `Cc1cc2cc(C=O)c(Cl)nc2cc1C`, with 13.6%.
To `CCOc1ccc(Cc2c(Cl)nc(SC)nc2N(C)C)cc1` belongs 0.539%; to `O=S(=O)(NC1c2cccc3cccc(c23)C1Sc1ncccn1)c1ccc(Cl)cc1` (centres unmarked), 4.24%.
To `Cc1ccc(-c2c(C#N)c(N)n3c(nc4ccccc43)c2C#N)cc1` belongs 7.2%.
Consider `O=C(CCn1c(=O)oc2ccccc21)NCCN1CCOCC1`, for which the “hERG current change (%, negative = inhibition) at 1uM” value worked out at 11.9%.
In the case of `Cc1ccc(Cn2c(C)c3cnn(CC(=O)NCc4ccccn4)c(=O)c3c2C)cc1`, the “hERG current change (%, negative = inhibition) at 1uM” value came to 12.4%.
To `CC(=O)c1ccc(OCc2cc(C(=O)N3CCN(C4CCCC4)C(=O)C3)no2)cc1` belongs 24.1%.
To `COc1ccccc1Nc1ncnc2c1cnn2-c1cccc(C)c1` belongs 0.0902%; to `COc1cc(Cl)ccc1OCc1cc(C(=O)NCC(C)c2ccccc2)no1` (centres unmarked), 11.5%.
Then `CCc1ccc(NCc2ccc(OC)c(Cn3ccnc3)c2)cc1`, with 9.63%; and `COc1ccc(CNS(=O)(=O)NCc2ccc(OC)c(OC)c2)cc1OC`, with -1.48%; and `NC(=O)C(=O)NN=C1C2CC3CC(C2)CC1C3`, with 11.9%.
On to `COc1cccc(C(=O)Nc2ccc(NC(=O)C3CCCCC3C(=O)O)cc2)c1` (centres unmarked), for which the “hERG current change (%, negative = inhibition) at 1uM” value turned out to be 12.6%.
To `O=[N+]([O-])c1cc([As](=O)(O)O)ccc1O` belongs 14.9%; to `NC(=O)CN1CCN(c2nc(-c3ccc(F)cc3)cs2)CC1`, 4.03%.
To `Cc1ccc(C)c(S(=O)(=O)N2CCN(C(=O)Cn3cnc4c3c(=O)n(C)c(=O)n4C)CC2)c1` belongs 1.06%; to `Cc1cc([N+](=O)[O-])ccc1NC(=O)CCC(=O)N1CCCC1`, 7.82%.
Then `CCOc1ccc(NC(=O)CC2C(=O)N(c3ccccc3)C(=O)N2Cc2ccccn2)cc1` (centres unmarked), with -5.68%; and `CCOC(=O)N1CCN(C(=O)CN(c2ccc(C)cc2)S(=O)(=O)c2c(C)noc2C)CC1`, with 6.27%; and `COc1ccc(CC(=O)NNC(=O)c2cc(C)oc2C)cc1OC`, with 5.16%.
Turning to `CCOc1ccccc1CNC(=O)C1CCN(c2nnc(C)c3c(C)n(-c4ccc(C)cc4)nc23)CC1`, the “hERG current change (%, negative = inhibition) at 1uM” value is on record as -5.49%.
On to `C=C(C)Cn1c(CCCNC(=O)C(C)(C)C)nc2ccccc21`, for which the “hERG current change (%, negative = inhibition) at 1uM” value is reported as -17.9%.
To `CN(C)S(=O)(=O)c1cccc(NC(=O)c2cc([N+](=O)[O-])ccc2N2CCCCC2)c1` belongs -8.27%; to `CC(C)(C)NNC(=S)Nc1cccc(C(F)(F)F)c1`, 12%; to `CCCn1c(SCC(=O)NCc2ccc(F)cc2)n[nH]c1=O`, 14%.
As for `CC(=O)c1c(COC(=O)c2ccco2)nc2ccccc2[n+]1[O-]`, the “hERG current change (%, negative = inhibition) at 1uM” value was 4.26%.
To `Cc1ccsc1C(=O)OCC(=O)NCCNC(=O)COC(=O)c1sccc1C` belongs -1.41%; to `COC(=O)c1sccc1NC(=O)Nc1cccc(C)c1`, 5.31%.
As for `COc1ccc(CCNC(=S)Nc2ccccc2)cc1`, the “hERG current change (%, negative = inhibition) at 1uM” value turned out to be 4.29%.
With `COc1ccc(NS(=O)(=O)c2cccc(C(=O)N3CCCC(C)C3)c2)cc1` (centres unmarked), the “hERG current change (%, negative = inhibition) at 1uM” value is 3.3%.
To `O=S(=O)(c1ccccc1)N1CCC(O)(CN2CCN(c3ccccc3)CC2)CC1` belongs 14.8%.
Then `O=C(COc1ncnc2sccc12)Nc1cccc(S(=O)(=O)N2CCCC2)c1`, with 2.21%.
To `Cc1ccc(OCC(=O)Nc2ccncc2)c(C)c1` belongs 4%; to `O=C(N/N=C/c1ccc(OC(=O)c2ccccc2)cc1)c1cccnc1`, 19.1%.
As to `CCNc1nc(NCC)n2c(SCC(=O)Nc3ccc(C(F)(F)F)cc3[N+](=O)[O-])nnc2n1`, the “hERG current change (%, negative = inhibition) at 1uM” value is recorded as 10.6%.
Then `Cc1nn(C(=O)/C(C#N)=C/N(C)C)c(C)c1C`, with 17.7%.
To `CCNc1nnc(CSc2nc3ccccc3s2)s1` belongs -9.62%; to `CCOC(=O)c1cccc(NC(=O)c2ccccc2C)c1`, -8.45%; to `Fc1ccc(-c2nn(-c3ccccc3)cc2CNCc2ccccc2)cc1`, 7.64%.
Then `N/C(COc1ccc(Cl)cc1Cl)=N\NS(=O)(=O)c1ccccc1`, with 5.59%; and `N#CCCn1nc(-c2ccccc2)cc1Nc1ccccc1NC(=O)c1cccs1`, with 12.5%; and `O=C(COC(=O)c1cc(Cl)ccc1O)NNC(=O)c1ccc([N+](=O)[O-])cc1`, with 3.31%.
Regarding `NC(=O)c1ccc(N2CCN(c3ccc(O)cc3)CC2)c([N+](=O)[O-])c1`, the “hERG current change (%, negative = inhibition) at 1uM” value is listed as 0.331%.
Then `COc1cc(NC(=O)COc2ccc(-n3ccnc3)cc2)cc(OC)c1`, with -4.56%; and `CCOC(=O)C(=CNc1cc(C(F)(F)F)ccc1N1CCOCC1)C(=O)OCC`, with -1.02%.
To `COc1cc(C(=O)N/N=C(\c2ccccc2)c2ccccn2)cc(OC)c1OC` belongs 9.74%; to `CCc1ccc(/C=C2/SC(=S)N(CCC(=O)Nc3cccnc3)C2=O)cc1`, -0.954%.
To `C/C(=N\NC(=O)CSc1nc2ccccc2c(=O)n1-c1ccccc1C)c1cccs1` belongs 7.59%; to `CC(=O)N1N=C(c2ccccc2O)OC1(C)CC(=O)Nc1ccccc1` (centres unmarked), 1.15%; to `CC(Oc1ccccc1)C(=O)Nc1cc(Cl)ccc1-n1cncn1` (centres unmarked), -6.12%.
For the compound `COc1ccccc1C(CC(=O)O)c1ccc2c(c1)OCO2` (centres unmarked), the “hERG current change (%, negative = inhibition) at 1uM” value came out at 9.8%.
Then `CC(C)C1=CC(=Nc2ccc(S(N)(=O)=O)cc2)C=C(C(C)C)C1=O.O`, with 13.3%; and `COc1cccc(C(c2sc3nc(C)nn3c2O)N2CCc3ccccc3C2)c1` (centres unmarked), with 2.75%; and `Cn1c(CNc2nc(-c3ccccc3)cs2)nnc1SCC(=O)N1CCc2ccccc21`, with 9.84%.
To `Cc1ccc(C(=O)n2nnc3ccccc32)cc1` belongs 7.88%; to `CN(Cc1ccccc1)S(=O)(=O)c1ccc(NS(=O)(=O)Cc2ccccc2)cc1`, 13.1%; to `COc1ccc(/C=C2/C(=O)N=C3SCCN32)cc1`, -17.1%.
Then `Cc1ccc(C2C3=C(CCCC3=O)Nc3nc(SCC(=O)NCc4ccco4)[nH]c(=O)c32)cc1` (centres unmarked), with -3.42%.
